# From the supplement of paper PMC12217912
# Some of the results follow. Sequences were assembled here from the parent chain. Inactive controls read about 0.05.
# B1: TEV protease; numbered along this chain (parent)
# chain: MGESLFKGPRDYNPISSSICHLTNESDGHTTSLYGIGFGPFIITNKHLFRRNNGTLVVQSLHGVFKVKDTTTLQQHLVDGRDMIIIRMPKDFPPFPQKLKFREPQREERICLVTTNFQTKSMSSMVSDTSCTFPSGDGIFWKHWIQTKDGQCGSPLVSTRDGFIVGIHSASNFTNTNNYFTSVPKNFMELLTNQEAQQWVSGWRLNADSVLWGGHKVFMVKPEEPFQPVKEATQL
# Variants of: B1
# Assay: raw area under fraction-flipped curve 0-4 h after induction (AUC4h, not background-subtracted), DNA-recorder readout of cleavage of the substrate (dimensionless); higher = more cleavage of the substrate by the protease variant
# Details: temperature: 34 °C; time window: 0-4 h after rhamnose induction
# Protocol: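 In vivo DNA recorder in E. coli TOP10(DE3) ΔrhaA at 34 °C. Each TEVp single-site mutant (parent TEVp 0) is paired with a single-site variant of the 7-mer TEVs (canonical ENLYFQ|S). The substrate sits between flexible linkers in a Bxb1-sfGFP-TEVs-SsrA fusion, so cleavage stabilises Bxb1 and speeds flipping of a recombination array, read by NGS. The value is the raw area under the fraction-flipped curve over 0-4 h after rhamnose induction (AUC4h), with ≥20 reads per time point. It is not background-subtracted; inactive controls average about 0.047.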
# 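Note: Bxb1 expression induced with 0.2% (w/v) L-rhamnose at OD600 near 0.5, cultures sampled hourly, flipped fraction per protease–substrate barcode pair counted by paired-end Illumina sequencing.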
variant,measurement,value
MGESLFKGPRDYNPISSSICHLTNESDGHTTSLYGIEFGPFIITNKHLFRRNNGTLVVQSLHGVFKVKDTTTLQQHLVDGRDMIIIRMPKDFPPFPQKLKFREPQREERICLVTTNFQTKSMSSMVSDTSCTFPSGDGIFWKHWIQTKDGQCGSPLVSTRDGFIVGIHSASNFTNTNNYFTSVPKNFMELLTNQEAQQWVSGWRLNADSVLWGGHKVFMVKPEEPFQPVKEATQL [G37E],area with substrate ANLYFQS,0.045
same,area with substrate CNLYFQS,0.039
same,area with substrate FNLYFQS,0.052
same,area with substrate HNLYFQS,0.0498
same,area with substrate INLYFQS,0.039
same,area with substrate LNLYFQS,0.0429
same,area with substrate NNLYFQS,0.0413
same,area with substrate PNLYFQS,0.0445
same,area with substrate SNLYFQS,0.0332
same,area with substrate TNLYFQS,0.0402
same,area with substrate VNLYFQS,0.0468
same,area with substrate WNLYFQS,0.0423
same,area with substrate YNLYFQS,0.0399
MGESLFKGPRDYNPISSSICHLTNESDGHTTSLYGLGFGPFIITNKHLFRRNNGTLVVQSLHGVFKVKDTTTLQQHLVDGRDMIIIRMPKDFPPFPQKLKFREPQREERICLVTTNFQTKSMSSMVSDTSCTFPSGDGIFWKHWIQTKDGQCGSPLVSTRDGFIVGIHSASNFTNTNNYFTSVPKNFMELLTNQEAQQWVSGWRLNADSVLWGGHKVFMVKPEEPFQPVKEATQL [I36L],area with substrate ANLYFQS,0.0462
same,area with substrate DNLYFQS,0.0922
same,area with substrate FNLYFQS,0.0808
same,area with substrate GNLYFQS,0.0467
same,area with substrate HNLYFQS,0.0678
same,area with substrate INLYFQS,0.056
same,area with substrate KNLYFQS,0.0631
same,area with substrate LNLYFQS,0.0672
same,area with substrate MNLYFQS,0.07
same,area with substrate NNLYFQS,0.0726
same,area with substrate PNLYFQS,0.0787
same,area with substrate SNLYFQS,0.0603
same,area with substrate TNLYFQS,0.072
same,area with substrate YNLYFQS,0.0386
MGESLFKGPRDYNPISSSICHLTNESDGHTTSLIGIGFGPFIITNKHLFRRNNGTLVVQSLHGVFKVKDTTTLQQHLVDGRDMIIIRMPKDFPPFPQKLKFREPQREERICLVTTNFQTKSMSSMVSDTSCTFPSGDGIFWKHWIQTKDGQCGSPLVSTRDGFIVGIHSASNFTNTNNYFTSVPKNFMELLTNQEAQQWVSGWRLNADSVLWGGHKVFMVKPEEPFQPVKEATQL [Y34I],area with substrate ANLYFQS,0.0829
same,area with substrate CNLYFQS,0.066
same,area with substrate HNLYFQS,0.0484
same,area with substrate KNLYFQS,0.0532
same,area with substrate LNLYFQS,0.0633
same,area with substrate PNLYFQS,0.0632
same,area with substrate TNLYFQS,0.0597
same,area with substrate VNLYFQS,0.0753
same,area with substrate WNLYFQS,0.0602
MGESLFKGPRDYNPISSSICHLTNESDGHTTSLFGIGFGPFIITNKHLFRRNNGTLVVQSLHGVFKVKDTTTLQQHLVDGRDMIIIRMPKDFPPFPQKLKFREPQREERICLVTTNFQTKSMSSMVSDTSCTFPSGDGIFWKHWIQTKDGQCGSPLVSTRDGFIVGIHSASNFTNTNNYFTSVPKNFMELLTNQEAQQWVSGWRLNADSVLWGGHKVFMVKPEEPFQPVKEATQL [Y34F],area with substrate ANLYFQS,0.0493
same,area with substrate CNLYFQS,0.0846
same,area with substrate HNLYFQS,0.0659
same,area with substrate INLYFQS,0.06
same,area with substrate MNLYFQS,0.0602
same,area with substrate PNLYFQS,0.0584
same,area with substrate WNLYFQS,0.0464
same,area with substrate YNLYFQS,0.0617
MGESLFKGPRDYNPISSSICHLTNESDGHTTSLQGIGFGPFIITNKHLFRRNNGTLVVQSLHGVFKVKDTTTLQQHLVDGRDMIIIRMPKDFPPFPQKLKFREPQREERICLVTTNFQTKSMSSMVSDTSCTFPSGDGIFWKHWIQTKDGQCGSPLVSTRDGFIVGIHSASNFTNTNNYFTSVPKNFMELLTNQEAQQWVSGWRLNADSVLWGGHKVFMVKPEEPFQPVKEATQL [Y34Q],area with substrate ANLYFQS,0.0664
same,area with substrate CNLYFQS,0.0664
same,area with substrate RNLYFQS,0.048
same,area with substrate SNLYFQS,0.0663
same,area with substrate TNLYFQS,0.0564
same,area with substrate WNLYFQS,0.0583
MGESLFKGPRDYNPISSSICHLTNESDGHTTSLGGIGFGPFIITNKHLFRRNNGTLVVQSLHGVFKVKDTTTLQQHLVDGRDMIIIRMPKDFPPFPQKLKFREPQREERICLVTTNFQTKSMSSMVSDTSCTFPSGDGIFWKHWIQTKDGQCGSPLVSTRDGFIVGIHSASNFTNTNNYFTSVPKNFMELLTNQEAQQWVSGWRLNADSVLWGGHKVFMVKPEEPFQPVKEATQL [Y34G],area with substrate ANLYFQS,0.0648
same,area with substrate CNLYFQS,0.025
same,area with substrate GNLYFQS,0.0666
same,area with substrate HNLYFQS,0.0614
same,area with substrate INLYFQS,0.0539
same,area with substrate KNLYFQS,0.0598
same,area with substrate LNLYFQS,0.059
same,area with substrate PNLYFQS,0.0673
same,area with substrate RNLYFQS,0.0507
MGESLFKGPRDYNPISSSICHLTNESDWHTTSLYGIGFGPFIITNKHLFRRNNGTLVVQSLHGVFKVKDTTTLQQHLVDGRDMIIIRMPKDFPPFPQKLKFREPQREERICLVTTNFQTKSMSSMVSDTSCTFPSGDGIFWKHWIQTKDGQCGSPLVSTRDGFIVGIHSASNFTNTNNYFTSVPKNFMELLTNQEAQQWVSGWRLNADSVLWGGHKVFMVKPEEPFQPVKEATQL [G28W],area with substrate ANLYFQS,0.0702
same,area with substrate CNLYFQS,0.0551
same,area with substrate FNLYFQS,0.0497
same,area with substrate GNLYFQS,0.0637
same,area with substrate HNLYFQS,0.0601
same,area with substrate INLYFQS,0.0739
same,area with substrate LNLYFQS,0.0464
same,area with substrate MNLYFQS,0.0445
same,area with substrate NNLYFQS,0.0559
same,area with substrate PNLYFQS,0.0624
same,area with substrate SNLYFQS,0.0539
same,area with substrate TNLYFQS,0.068
same,area with substrate WNLYFQS,0.0498
MGESLFKGPRDYNPISSSICHLTNESDGHTTSLYPIGFGPFIITNKHLFRRNNGTLVVQSLHGVFKVKDTTTLQQHLVDGRDMIIIRMPKDFPPFPQKLKFREPQREERICLVTTNFQTKSMSSMVSDTSCTFPSGDGIFWKHWIQTKDGQCGSPLVSTRDGFIVGIHSASNFTNTNNYFTSVPKNFMELLTNQEAQQWVSGWRLNADSVLWGGHKVFMVKPEEPFQPVKEATQL [G35P],area with substrate ANLYFQS,0.0397
same,area with substrate CNLYFQS,0.0583
same,area with substrate TNLYFQS,0.0378
same,area with substrate WNLYFQS,0.0756
MGESLFKGPRDYNPISSSICHLTNESDGHGTSLYGIGFGPFIITNKHLFRRNNGTLVVQSLHGVFKVKDTTTLQQHLVDGRDMIIIRMPKDFPPFPQKLKFREPQREERICLVTTNFQTKSMSSMVSDTSCTFPSGDGIFWKHWIQTKDGQCGSPLVSTRDGFIVGIHSASNFTNTNNYFTSVPKNFMELLTNQEAQQWVSGWRLNADSVLWGGHKVFMVKPEEPFQPVKEATQL [T30G],area with substrate ANLYFQS,0.074
same,area with substrate CNLYFQS,0.0997
same,area with substrate GNLYFQS,0.0153
same,area with substrate HNLYFQS,0.0594
same,area with substrate INLYFQS,0.057
same,area with substrate KNLYFQS,0.0616
same,area with substrate LNLYFQS,0.0541
same,area with substrate MNLYFQS,0.0678
same,area with substrate NNLYFQS,0.0605
same,area with substrate PNLYFQS,0.0656
same,area with substrate SNLYFQS,0.102
same,area with substrate TNLYFQS,0.0632
same,area with substrate VNLYFQS,0.0718
same,area with substrate WNLYFQS,0.0576
same,area with substrate YNLYFQS,0.0617
MGESLFKGPRDYNPISSSICHLTNESDGHKTSLYGIGFGPFIITNKHLFRRNNGTLVVQSLHGVFKVKDTTTLQQHLVDGRDMIIIRMPKDFPPFPQKLKFREPQREERICLVTTNFQTKSMSSMVSDTSCTFPSGDGIFWKHWIQTKDGQCGSPLVSTRDGFIVGIHSASNFTNTNNYFTSVPKNFMELLTNQEAQQWVSGWRLNADSVLWGGHKVFMVKPEEPFQPVKEATQL [T30K],area with substrate ANLYFQS,0.0705
same,area with substrate CNLYFQS,0.0737
same,area with substrate FNLYFQS,0.0529
same,area with substrate HNLYFQS,0.0713
same,area with substrate MNLYFQS,0.0553
same,area with substrate NNLYFQS,0.0528
same,area with substrate SNLYFQS,0.0579
same,area with substrate TNLYFQS,0.0689
same,area with substrate WNLYFQS,0.0525
same,area with substrate YNLYFQS,0.0252
